# According to PubChem BioAssay AID1460 (National Center for Advancing Translational Sciences (NCATS), 2008):
# Out of some 270,000 compounds screened, about 5,800 (2.1%) were called active. Roughly 16% stayed inconclusive and do not appear here. Calls come from the whole dose curve; as a rule, active = well fitted inhibition curve with a large enough effect; inconclusive = small, poorly fitted or top-dose-only effect; inactive = flat fitted curve, though single readings scatter. Only a part is listed here, and it is no random draw. The source holds several records for some structures; these can differ, active in one and inactive in another.
# Molecular target: Microtubule-associated protein tau (Homo sapiens) (UniProt P10636)
# Test: qHTS for Inhibitors of Tau Fibril Formation, Thioflavin T Binding; note: nearly all actives have a fitted effect of over 55% in size
# Conditions: recombinant tau K18 P301L (four-repeat tau fragment), heparin-induced fibrillization, ThT fluorescence; series mostly up to 57.4 µM; activity, negative = inhibition: at the top concentration
# Procedure, shortened: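 Tau K18 P301L fragment (15 uM unlabeled plus 0.24 uM Alexa 594-labeled) in 100 mM sodium acetate pH 7 with compound, fibrillization induced by 20 uM heparin for 6 hr at 37 C. Thioflavin T (30 uM) added, fluorescence read after 1 hr (ex 450, em 510 nm).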
# % is set by controls: 0 for no effect and ±100 for the full control effect; potency is the fitted concentration of half-maximal effect.
# Chain of UniProt P10636 (P10636 whole entry, looked up): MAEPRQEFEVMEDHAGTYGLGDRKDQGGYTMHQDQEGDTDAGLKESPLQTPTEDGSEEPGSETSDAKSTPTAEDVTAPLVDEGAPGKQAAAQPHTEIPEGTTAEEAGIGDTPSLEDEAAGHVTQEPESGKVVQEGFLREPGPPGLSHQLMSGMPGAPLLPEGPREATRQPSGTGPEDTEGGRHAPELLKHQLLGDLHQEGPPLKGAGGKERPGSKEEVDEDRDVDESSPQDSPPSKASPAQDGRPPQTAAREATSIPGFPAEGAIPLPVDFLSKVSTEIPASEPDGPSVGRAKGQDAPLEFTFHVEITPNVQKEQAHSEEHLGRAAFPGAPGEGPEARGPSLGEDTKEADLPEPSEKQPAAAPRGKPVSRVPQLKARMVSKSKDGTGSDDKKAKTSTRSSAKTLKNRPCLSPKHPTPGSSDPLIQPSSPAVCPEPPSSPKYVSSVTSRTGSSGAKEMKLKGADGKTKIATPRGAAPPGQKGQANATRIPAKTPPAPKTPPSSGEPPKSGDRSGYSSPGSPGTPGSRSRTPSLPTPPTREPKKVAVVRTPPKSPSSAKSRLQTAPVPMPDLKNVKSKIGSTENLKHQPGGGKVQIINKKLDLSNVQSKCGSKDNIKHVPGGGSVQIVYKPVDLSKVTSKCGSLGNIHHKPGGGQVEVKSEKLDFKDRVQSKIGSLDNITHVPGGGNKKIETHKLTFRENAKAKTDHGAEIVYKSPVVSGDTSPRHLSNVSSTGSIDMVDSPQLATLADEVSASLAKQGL
SMILES,"activity, negative = inhibition",Potency
CCCCC1=CC2=C(c3ccco3)C(=O)C(C)(OC(=O)c3ccc(OC)cc3)C(=O)C2=CN1C1CCCCC1 (stereo not drawn),inactive: 2.32% [at 11.5 µM],–
COc1ccccc1C(=O)n1nc(-c2cccnc2)nc1NCc1ccccc1,inactive: -10.5%,–
COc1ccc(-c2csc3nc(-c4ccccc4)oc(=O)c23)cc1OC,inactive: 6.22%,–
Cc1ccc(C(=O)N/C(=C/c2ccco2)C(=O)NCCc2c[nH]c3ccccc23)cc1,inactive: -6.85%,–
COc1ccc2cc([C@H](C)C(=O)O)ccc2c1,–,inactive
COC(=O)c1ccc(-c2nc(O)c(C)s2)cc1,–,active: 12.6 µM
CO[C@H]1COC(=O)C/C=C\[C@H](C)[C@@H](NS(=O)(=O)c2ccc(C)cc2)COC(=O)C/C=C\[C@@H]1C,inactive: -6.06% [at 11.5 µM],–
O=C1OCCN1C(=O)[C@H]1[C@H](c2ccc([N+](=O)[O-])cc2)C(c2cccc(Cl)c2)=NN1c1ccccc1,inactive: -7.34%,–
Clc1ccc(C[n+]2csc3ccccc32)cc1,–,active: 22.4 µM
CC1=C(/C=C/C(C)=C/C=C/C(C)=C/CO)C(C)(C)CCC1,inactive: -10.4%,–
Oc1ccc(-c2nc(-c3ccc(F)cc3)c(-c3ccncc3)[nH]2)cc1,–,inactive
NC(Cc1cc(I)c(Oc2ccc(O)c(I)c2)c(I)c1)C(=O)O (stereo not drawn),inactive: -16.5%,–
Cc1ccc(NC(=O)CSc2nc(C)c(Cc3ccccc3)c(=O)[nH]2)cc1,inactive: -16%,–
CC1=C(C(=O)O)N2C(=O)C(NC(=O)C(N)c3ccccc3)C2SC1 (stereo not drawn),inactive: -10.4%,–
COc1cc(NC(=O)CSc2c3c(nc4ccccc24)CCC3)cc(OC)c1OC,inactive: -15.5%,–
COC(=O)[C@H]1C[C@@H]1[C@H](NC(=O)Oc1ccc(F)cc1)c1ccccc1,inactive: -1.71%,–
N[C@@H](Cc1c[nH]c2ccccc12)C(=O)O,inactive: -17.2%,–
C[C@@H]1C=C(C(=O)N2CCOCC2)O[C@H](OCc2ccc(CO)cc2)C1,inactive: -7.73%,–
COc1ccc(N)c2c1C(=O)c1ccccc1C2=O,–,active: 15.8 µM
CC(=O)OC[C@@H]1O[C@H](C/C=N\O[C@@H]2O[C@H](COC(C)=O)[C@@H](OC(C)=O)[C@H](OC(C)=O)[C@H]2OC(C)=O)C=C[C@@H]1OC(C)=O,inactive: -2.98% [at 11.5 µM],–
S=C(NNc1cccc(Cl)c1)NC1CCCCC1,–,active: 25.1 µM
COc1ccc(N2CCN(C(=O)C3CCN(S(=O)(=O)c4cccs4)CC3)CC2)cc1,inactive: -15.6%,–

SMILES,"activity, negative = inhibition",Potency
COC(=O)c1ccc(C(NC(=O)OCc2ccccc2)/C(F)=C/[C@@H](C)C(=O)NCc2ccc(OC)c(OC)c2)cc1 (stereo partly drawn),inactive: -17.7%,–
CC(=O)c1ccc(NC(=S)Nc2ccc3cn[nH]c3c2)cc1,–,active: 15.8 µM
O=C(Nc1ccccc1)N(O)c1ccc(Cl)cc1,–,active: 25.1 µM
CCc1ccc2nc3sc(C(=O)Nc4nnc(CC)s4)c(N)c3cc2c1,–,active: 3.98 µM
C=CCN1C(=O)/C(=C2/C(=O)N(CC(=O)O)c3ccccc32)S/C1=N/c1nccs1,–,active: 7.08 µM
O=C(NCc1ccccc1)C1=C[C@H](c2coc3ccccc3c2=O)C[C@H](OCc2ccc(CO)cc2)O1,inactive: -12.5%,–
CC(C)c1ccc2c(c1)CCC1C(C)(CN)CCCC21C (stereo not drawn),inactive: -4.43%,–
N#C/C(=C\c1ccc(N2CCOCC2)o1)C(=O)N1CCOCC1,inactive: -14.6%,–
C[C@@H]1C[C@H]2[C@@H]3CCC4=CC(=O)C=C[C@]4(C)[C@@]3(F)[C@@H](O)C[C@]2(C)[C@@]1(O)C(=O)COP(=O)(O)O,–,inactive
CCC[C@@H]1C[C@@]1(CCC)[C@@H](NP(=O)(c1ccccc1)c1ccccc1)c1ccc(C(=O)OC)cc1,inactive: -26.3%,–
CCCCC1=CC2=CC(=O)C(C)(OC(=O)CC)C(=O)C2=CN1CCc1c[nH]c2ccccc12 (stereo not drawn),inactive: 7.83% [at 11.5 µM],–
CC(=O)N(Cc1ccc(F)cc1)C1=C(NCc2ccccc2)C(=O)c2ccccc2C1=O,–,active: 28.2 µM
O=[N+]([O-])c1ccc2cn[nH]c2c1,inactive: 0.0145%,–
CC(=O)c1ccc(N2CCN(C(=O)Nc3ccc(C)cc3)CC2)cc1,inactive: -5.47%,–
CCCCC/C=C/C=C1/C(=O)C=C[C@@H]1C/C=C\CCCC(=O)O,–,inactive
COC(=O)C1(C(C)=O)CC2=CC[C@H]3C(=O)N(c4ccccc4)C(=O)[C@H]3[C@@H]2Cc2ccccc2[C@@H]1C[N+](=O)[O-] (stereo partly drawn),–,inactive
COc1cccc(-c2cc(=O)c3cc(NC(=O)c4ccccc4)ccc3[nH]2)c1,inactive: -22.7% [at 81.4 µM],–
Cc1ccccc1NC(=O)CSc1nc2ccccc2c2nc(CCn3cncc3C)nn12,inactive: 14.9%,–
Cc1cc(C)cc(NC(=O)CSc2nc3c(c(=O)[nH]2)CN(Cc2ccc(F)cc2)CC3)c1,inactive: -2.61%,–
Nc1c2ccccc2nc2ccccc12,inactive: -6.89%,–
CO[C@@H]1COC(=O)C/C=C\[C@H](C)[C@H](OC)COC(=O)[C@H](C)NC(=O)C/C=C\[C@H]1C,inactive: -3.49% [at 11.5 µM],–
COc1ccc2c(c1)c(CC(=O)O)c(C)n2C(=O)c1ccc(Cl)cc1,–,inactive

SMILES,"activity, negative = inhibition",Potency
Cn1cc(C(=O)N/N=C/C(Br)=C\c2ccccc2)ccc1=O,inactive: -8.44%,–
CC(C)Cn1c(N)c(C(=O)COC(=O)c2cc(-c3ccco3)nc3ccccc23)c(=O)n(C)c1=O,inactive: -14.2%,–
CCN(CC)C(=O)/C(=C\c1ccc2c(c1)OCO2)NC(=O)c1ccc(Br)cc1,inactive: -8.77%,–
COc1ccc(O[C@H]2C=C[C@@H](c3ccccc3)O[C@H]2COC(=O)CC/C(C)=N/O[C@@H]2O[C@H](COC(C)=O)[C@H](OC(C)=O)[C@H](OC(C)=O)[C@H]2OC(C)=O)cc1,inactive: -5.68% [at 11.5 µM],–
CC(C)C[C@H](NC(=O)[C@H](O)[C@H](N)Cc1ccccc1)C(=O)O,inactive: -3.5%,–
CCCn1c(N)[n+](CC(=O)c2ccco2)c2ccccc21,inactive: -2.79%,–
O=C(C1=C[C@H](c2coc3ccccc3c2=O)C[C@H](OCCCCO)O1)N1CCN(Cc2ccccc2)CC1,inactive: -5.55%,–
CN1CCN(CCCN2c3ccccc3Sc3ccc(C(F)(F)F)cc32)CC1,inactive: -18.8%,–
COC(=O)Nc1nc2ccc(C(=O)c3cccs3)cc2[nH]1,–,inactive
CN=C(NC#N)NCCSCc1csc(N=C(N)N)n1,inactive: -4.55%,–
CCCC(=O)O[C@@H]1C[C@@H](C)N(C(=O)c2ccccc2)c2ccc(C)cc21,inactive: -13.4%,–
CC1=C(C(=O)OCc2ccccc2)C(c2ccc(Cl)cc2)NC(=O)N1CCCCCC(=O)O (stereo not drawn),inactive: -15.1%,–
CCOc1cc(/C=C2/C(=O)ON=C2C)ccc1OCc1ccccc1,inactive: -16.3%,–
CCCCCCCCCCCCCCC[C@H](O)[C@H](N)CO,inactive: -7.91%,–
Oc1c(I)cc(Cl)c2cccnc12,inactive: -20.1%,–
O=C(NCc1ccccc1)[C@H]1C[C@@H]1[C@H](NP(=O)(c1ccccc1)c1ccccc1)c1ccccc1,inactive: 11%,–
COc1cccc(-n2c(C)c3c(OC)cccc(=O)c3c2C)c1,–,active: 25.1 µM
COCCCNC(=O)CSc1nc2cc3c(cc2c(=O)n1CCCC(=O)NCc1ccc(OC)cc1)OCO3,inactive: 5.56%,–
COc1ccc(Nc2ncc(C(=O)N3CCN(c4ccc(F)cc4)CC3)c3ccccc23)cc1,inactive: -10.9%,–
O=C(O)COc1ccc(/C=C/c2ccc3cccc([N+](=O)[O-])c3n2)cc1,–,active: 7.94 µM
O=C(CSc1nc2ccccc2[nH]1)N/N=C/C=C\c1ccccc1[N+](=O)[O-],inactive: -1.96%,–
O=C1/C(=C/c2cccnc2)SC(=S)N1Nc1ccccc1,–,active: 28.2 µM

SMILES,"activity, negative = inhibition",Potency
CCOC(=O)c1cc2c(=O)n3ccccc3nc2n(CCOC)c1=NC(=O)c1c(-c2c(F)cccc2Cl)noc1C,inactive: -14.9%,–
CC1(OC(=O)C2CCCC2)C(=O)C=C2C=C(c3ccsc3)N(CCc3c[nH]c4ccccc34)C=C2C1=O (stereo not drawn),inactive: -5.82% [at 11.5 µM],–
Cc1ccccc1/C=C\c1nc2ccccc2c(=O)[nH]1,inactive: -7.04%,–
O=C(C1=C[C@@H](c2csc3ccccc23)C[C@@H](OCc2ccc(CO)cc2)O1)N1CCN(Cc2ccccc2)CC1,inactive: -17%,–
CCOC(=O)c1cc2c(=O)n3ccccc3nc2n(Cc2ccco2)c1=NC(=O)c1ccc(OC)cc1,inactive: -10.3%,–
CCN(CC)c1ccc(/C=N/Nc2nc3ccccc3[nH]2)c(O)c1,–,active: 14.1 µM
C[C@@H](C(=O)NCc1ccccc1)[C@H]1C[C@]1(C)[C@H](NC(=O)OCc1ccccc1)c1ccccc1,–,inactive
COc1cc(/C=N/NC(=O)[C@H](Cc2c[nH]c3ccccc23)NC(=O)OCC(C)C)cc([N+](=O)[O-])c1O,–,active: 14.1 µM
C=C(C)C1(O)OC(=O)C=C1OC (stereo not drawn),inactive: -3.56%,–
CC12CCC3c4ccc(O)cc4CCC3C1CCC2=O (stereo not drawn),inactive: -2.25%,–
NCCCNCCCCNCCCN,inactive: -3.23%,–
CC1=NN(c2ccccc2)C(=O)C1,inactive: -21%,–
CC(=O)CC1OC(=O)C(Br)=C1NCc1ccccc1 (stereo not drawn),–,active: 8.91 µM
N#C/C(=C\c1ccccc1)C(=O)Nc1sc2c(c1C(N)=O)CCC2,–,active: 1.41 µM
N#Cc1c(NC(=O)c2ccc(Br)o2)n(-c2ccccc2)c2nc3ccccc3nc12,–,active: 25.1 µM
CC(=O)Nc1ccc2nc3c(=O)n(C)c(=O)n(C)c3nc2c1,–,active: 17.8 µM
C#CCNC(=O)C1=C[C@H](c2ccc(Br)cc2)C[C@H](OCCCCO)O1,inactive: -13.3%,–
CC(C)[N+](C)(CCOC(=O)C1c2ccccc2Oc2ccccc21)C(C)C,–,inactive
C1COC(NC(C2CC2)C2CC2)=N1,–,inactive
COC(=O)CCCC1=CC2=C(c3ccccc3)C(=O)C(C)(OC(=O)C3CCCC3)C(=O)C2=CN1c1ccc(OC)cc1 (stereo not drawn),inactive: 5.82% [at 11.5 µM],–
C[C@@H](C(=O)NCc1ccc(S(C)(=O)=O)cc1)[C@H]1C[C@]1(C)[C@H](NC(=O)OCc1ccccc1)c1ccccc1,inactive: -12.4%,–
COCCn1c(C(=O)N2CCCC2)cc2c1C[C@H]1CN(C(=O)c3ccccc3)[C@@](Cc3ccc(F)cc3)(C(=O)OC)[C@@H]21,inactive: -8.82%,–
